Hit rate of the full screen: of about 310,000 compounds, about 14,000 (4.5%) showed an effect of 50% or more. The effect is printed as a negative number. The list shows a part of the results.
Each molecule was assayed against human ether-à-go-go-related gene (hERG) potassium channel (human, UniProt Q12809) (assay: primary screen, population patch clamp on CHO cells stably expressing hERG).
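Note: peak tail current of the secondary pulse compared with the same well before compound.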

human ether-à-go-go-related gene (hERG) potassium channel, sequence (Q12809 whole entry, looked up): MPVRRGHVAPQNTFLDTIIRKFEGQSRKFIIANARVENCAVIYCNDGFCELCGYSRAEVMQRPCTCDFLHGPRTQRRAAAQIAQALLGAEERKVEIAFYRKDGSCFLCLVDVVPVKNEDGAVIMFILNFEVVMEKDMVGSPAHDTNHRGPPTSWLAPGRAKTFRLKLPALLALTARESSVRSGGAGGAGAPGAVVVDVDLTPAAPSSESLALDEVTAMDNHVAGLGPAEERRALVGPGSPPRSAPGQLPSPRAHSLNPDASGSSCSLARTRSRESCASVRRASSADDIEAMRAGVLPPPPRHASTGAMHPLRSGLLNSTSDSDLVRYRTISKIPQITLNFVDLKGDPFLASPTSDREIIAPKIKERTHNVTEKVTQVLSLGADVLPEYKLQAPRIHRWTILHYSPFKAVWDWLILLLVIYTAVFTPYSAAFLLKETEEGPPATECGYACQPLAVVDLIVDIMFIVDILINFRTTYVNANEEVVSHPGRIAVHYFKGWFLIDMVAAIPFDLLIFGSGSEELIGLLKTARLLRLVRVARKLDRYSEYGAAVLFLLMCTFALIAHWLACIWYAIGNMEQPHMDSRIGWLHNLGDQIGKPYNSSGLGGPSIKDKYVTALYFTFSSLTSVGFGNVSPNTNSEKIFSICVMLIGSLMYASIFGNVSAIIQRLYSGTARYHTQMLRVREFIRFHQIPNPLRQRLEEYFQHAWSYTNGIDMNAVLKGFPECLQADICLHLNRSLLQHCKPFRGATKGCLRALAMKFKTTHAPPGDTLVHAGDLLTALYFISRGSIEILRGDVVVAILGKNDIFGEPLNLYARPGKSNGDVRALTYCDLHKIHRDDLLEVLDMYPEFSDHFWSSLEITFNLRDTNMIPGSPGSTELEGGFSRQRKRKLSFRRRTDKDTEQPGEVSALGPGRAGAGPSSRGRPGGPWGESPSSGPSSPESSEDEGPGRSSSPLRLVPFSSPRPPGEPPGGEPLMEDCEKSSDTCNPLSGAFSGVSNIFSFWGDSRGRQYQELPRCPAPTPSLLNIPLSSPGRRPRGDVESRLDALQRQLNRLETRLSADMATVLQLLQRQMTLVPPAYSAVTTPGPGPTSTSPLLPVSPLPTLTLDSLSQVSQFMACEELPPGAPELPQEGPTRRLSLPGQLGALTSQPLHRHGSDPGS

Structure (SMILES) | hERG current change (%, negative = inhibition) at 10uM
CCCn1c(N)c(N(CCOC)C(=O)CSc2ccccc2)c(=O)[nH]c1=O | 13%
COc1cccc(CNC(=O)CCNC(=O)N2CCn3c2nc2ccccc23)c1 | -3.38%
CC(C)Nc1ccc(C(CC(N)=O)NC(=O)Cc2ccc(Cl)cc2)cc1[N+](=O)[O-] (stereo not drawn) | -4.52%
CC1=C(C(=O)OC2CCCCC2)C(c2ccc(O)cc2)NC(=O)N1 (stereo not drawn) | 6.09%
CN(c1ccc(C(=O)NCCSCc2ccccc2)cc1)S(=O)(=O)c1ccccc1 | -4.36%
Cc1ccc(C)c(S(=O)(=O)N2CCCOC2CNC(=O)C(=O)NCc2cccnc2)c1 (stereo not drawn) | -8.34%
CCc1ccc(-n2c(SCc3c(C)noc3C)nnc2-c2ccncc2)cc1 | -36.6%
Cc1nn(C)cc1CNC(=O)c1ccccc1Br | -0.56%
O=C(O)c1cc(-c2ccc(Cl)s2)[nH]n1 | -6.77%
C=CCOc1ccc(/C=C/C(=O)OCC(=O)NCCC2=CCCCC2)cc1 | 16.9%
Cc1ccccc1-n1c(N)c(C(=O)Nc2ccc(F)cc2)sc1=S | 17.1%
Cl.O=C(CCN1CCOCC1)c1ccccc1 | 3.53%
CCOc1ccccc1C(=O)Nc1cnn(Cc2ccc(F)cc2)c1 | -58.8%
N#Cc1ccccc1Sc1ccccc1C(=O)Nc1ccccc1 | 0.339%
COc1ccc(CCNC(=O)C2CCN(S(=O)(=O)c3cc(OC)ccc3OC)CC2)cc1 | -3.08%
COCCNC(=O)C(c1cccs1)N(C(=O)Cn1nnc2ccccc21)c1ccccc1 (stereo not drawn) | -5.43%
Cc1cccc(NC(=S)NCC(c2cccnc2)N(C)C)c1 (stereo not drawn) | 9.11%
COc1ccccc1OCC(=O)Nc1ccc(S(=O)(=O)Nc2onc(C)c2C)cc1 | 10.5%
CC(=O)Nc1ccccc1-c1nc2ccc(C(=O)N3CCN(c4cccc(C)c4)C(C)C3)cc2[nH]c1=O (stereo not drawn) | -17%
CN1CCN(c2nc(N)c(Br)c(Cl)n2)CC1 | -1.52%
Cc1ccc(S(=O)(=O)Nc2ccc3nc(C)sc3c2)c(C)c1 | -21.7%
O=C(Cn1ccc2cc(S(=O)(=O)N3CCCC3)ccc21)NCc1ccccc1 | 21.3%

Structure (SMILES) | hERG current change (%, negative = inhibition) at 10uM
CC(C)Nc1nc(NNc2nc(Cl)nc(NC(C)(C)C)n2)nc(NC(C)C)n1 | 10.1%
O=C(C(=O)N1CCN(c2cccc(Cl)c2)CC1)N1CCCCC1 | 5.36%
Cc1ccn(C(=O)c2cc3ccccc3oc2=O)n1 | -4.47%
CCOC(=O)c1nnn2c1nc(N1CCCCC1)c1ccccc12 | -23.8%
Cc1sc2nc(CSC(C)C(=O)Nc3ccc(C#N)cc3)[nH]c(=O)c2c1C (stereo not drawn) | -11%
COc1cccc(NC(=O)C2CCN(C(=O)[C@@H]3Cc4ccccc4CN3)CC2)c1 | -48.1%
O=c1c2ccccc2c(C=NC2CCS(=O)(=O)C2)c(O)n1-c1ccccc1 (stereo not drawn) | 12%
COc1ccc(OC)c2c1cc(C(=O)N[C@H](C(=O)N1CCC(C(=O)O)CC1)C(C)C)n2C | 20.9%
COc1ccc(S(=O)(=O)N2CCc3ccccc3C2)cc1 | 39.7%
CCC(=O)Nc1ccc(-c2ccc(N3CCN(C)CC3)nn2)cc1 | 13.3%
CC1CCCC(C)N1CCCNC(=O)Cn1cc2c(n1)CCCC2 (stereo not drawn) | -3.99%
Cc1c(Br)cc(C(=O)N2CCCC2)c(C)c1C | 0.525%
COC(=O)NNC(=O)COc1cc(C)ccc1C | 4.95%
N#C/C(=C\c1ccc[nH]1)C(=O)Nc1ccccc1[N+](=O)[O-] | 6.78%
O=S(=O)(c1cccc(C(F)(F)F)c1)N1CCN(c2nnnn2-c2ccccc2)CC1 | 22.9%
CCOC(=O)N1CCN(c2cc(C)nc3nc(C)nn23)CC1 | -32.9%
CCOCCCN(C)C1CCN(C(=O)c2oc3ccccc3c2NC(=O)COc2cccc(C)c2)CC1 | -82.2%
COc1ccc(C2NCCc3sccc32)cc1 (stereo not drawn) | 2.97%
O=C(CN1C(=O)NC2(CCCc3ccccc32)C1=O)N1CCN(C(=O)c2ccco2)CC1 (stereo not drawn) | -34.3%
CCOC(=O)c1ccc2nc(CCC(=O)N[C@H](C(=O)OC)C(C)C)c(=O)n(CC)c2c1 | -9.78%
Cc1ccc(S(=O)(=O)N2CCN(C(=O)CCC(=O)NCc3cccc(C(F)(F)F)c3)CC2)cc1 | -54.2%
O=C(NCc1cccnc1)C1CCN(S(=O)(=O)c2cccc(C(F)(F)F)c2)CC1 | 2.69%

Structure (SMILES) | hERG current change (%, negative = inhibition) at 10uM
COc1cc(Br)c(-c2sc(Nc3ccccc3)n[n+]2-c2ccccc2)cc1OC.[Cl-] | -68.7%
Cc1[nH]nc(N=CC2=C(O)CC(C)(C)CC2=O)c1-c1ccc(Cl)cc1 | -14.2%
O=[N+]([O-])c1ccc(Cc2ccncc2)cc1 | -26.9%
CC1Sc2ccc(S(=O)(=O)N3CCC(C(=O)Nc4ccc(Cl)cc4)CC3)cc2NC1=O (stereo not drawn) | 7.35%
CCCCNC(=O)c1nn2c(C(F)(F)F)cc(-c3ccc(OC)cc3)nc2c1Br | 5.02%
COc1ccc(OC)c(S(=O)(=O)N(C)CC(=O)Nc2ccccc2OC)c1 | -20.2%
COc1cc(OC)cc(C(=O)N[C@H](C(=O)Nc2ccc(NC(C)=O)cc2)C(C)C)c1 | 13%
Cc1csc(SCC(=O)c2cc(C)n(Cc3cccs3)c2C)n1 | 3.01%
CCOC(=O)c1oc2ccc(S(=O)(=O)n3nc(-c4ccc(OC)cc4)cc3N)cc2c1C | 18.4%
NC(=S)NNC(=S)Nc1ccccc1 | 22.8%
CCCN(CC1CC1)C(=S)Nc1ccccc1F | 14.5%
CN(Cc1ccccc1F)C(=O)c1sccc1-c1ccccc1 | -28.2%
CCOC(=O)C1CCN(S(=O)(=O)c2csc(C(N)=O)c2)CC1 | -17%
Cc1cc(C(=O)N(C)C)sc1-c1ccccc1 | 3.39%
CN1CCN(C(=O)CCCOc2ccc(Cl)cc2Cl)CC1 | -61.6%
Cc1ccc(NC(=O)c2nc(S(=O)(=O)Cc3ccccc3)ncc2Cl)cc1 | 5.59%
CCN(C(=O)COC(=O)c1cccn1C)C1CCS(=O)(=O)C1 (stereo not drawn) | 11.1%
CCCCn1c(NS(=O)(=O)c2ccc(C)cc2)c(C(=O)OCC)c2nc3ccccc3nc21 | -5.12%
CN(C)C(=O)c1cc(C(=O)c2ccccc2Cl)c[nH]1 | 11.8%
CCn1cnc2c1c(=O)n(Cc1ccc(C(=O)OC)cc1)c(=O)n2Cc1ccccc1 | 16.7%
COc1ccccc1NS(=O)(=O)c1ccc2oc(N)nc2c1 | -0.0394%
O=c1ccnc(SCn2nnc3ccccc3c2=O)[nH]1 | 11.7%

Structure (SMILES) | hERG current change (%, negative = inhibition) at 10uM
COc1cc(C2=NOC(C(=O)NCc3ccccn3)C2)cc(OC)c1OC (stereo not drawn) | 16.7%
COc1ccccc1Cc1nnc(NC(=O)C2CCN(C(=O)c3ccco3)CC2)s1 | 6.21%
COc1ccc2cc(/C=C/C(=O)c3ccco3)c(Cl)nc2c1 | 23%
COc1cc(Br)cc(/C=N/NC(=O)Cc2ccc(C(F)(F)F)cc2[N+](=O)[O-])c1O | 2.12%
COc1ccccc1NCN1C(=O)CCC1=O | -1.36%
CCCCNc1nc2ccccc2nc1NS(=O)(=O)c1ccc(F)cc1 | -0.523%
Cn1ccsc1=NC(=O)c1ccc(S(=O)(=O)C(F)F)cc1 | 7.74%
NC(=S)NC1CC2C=CC1C2 (stereo not drawn) | 8.86%
COc1ccccc1C(O)(C(=O)NN(C(=O)c1ccccc1)c1ccccc1C)c1cccs1 (stereo not drawn) | -26.9%
CCc1ccc(S(=O)(=O)Nc2ccncc2)cc1 | 5.53%
CCCc1cc(C(N)=O)c(NC(=O)c2ccco2)s1 | 16.8%
O=C(Cn1cc2c(n1)CCCC2)NCCCN1CCN(c2ccccc2F)CC1 | -31.1%
NS(=O)(=O)c1cccc(NC(=O)COC(=O)c2ccccc2C(=O)c2ccccc2)c1 | -49.5%
CN1C(=O)[C@@H]2[C@@H]3C[C@@H]([C@H]4ON=C(c5ccc(Cl)cc5)[C@@H]34)[C@@H]2C1=O | -26.2%
Cn1nc(C(F)(F)F)cc1-c1ccc(/C=C(\C#N)C(=O)c2ccccc2)s1 | 15.2%
Cc1c(NC(=O)C(C)OC(=O)c2cc3c4ccccc4n(C)c3s2)c(=O)n(-c2ccccc2)n1C (stereo not drawn) | -68.5%
O=C(NC1CCC(O)CC1)c1ccc2c(c1)S(=O)(=O)N=C1CCCCCN12 (stereo not drawn) | 11.1%
CCOc1ccc(-n2c(SCC(=O)OC)nc3sc4c(c3c2=O)CCN(C)C4)cc1 | -0.924%
CC(C)NC(=O)c1ccccc1N(Cc1ccccc1)S(C)(=O)=O | 13%
CC(C)(C)c1ccc(CN2C(=O)c3ccccc3S2(=O)=O)cc1 | 7.52%
O=C(NCC1CCCO1)c1ccccc1OCc1ccc(Cl)cc1 (stereo not drawn) | -1.91%

From paper PMC4336329 (PLoS ONE, 2015)
